According to article PMC11273436 (Antibiotics, 2024):
Ends that are not written are not given here.

Assays:
A549 cells = details: for cytotoxicity (in words): A549 cells, peptide 48 h, CCK-8, tested 0.0625-40 µM, 3 independent experiments
H1N1 virus [1] = assay type: cell-based, influenza A virus A/Puerto Rico/8/1934 (PR8); details: supernatants of A549 cells, H1N1 MOI = 0.01, 5 µM peptide, plaques on MDCK cells
H1N1 virus [2] = assay type: cell-based, influenza A virus A/Puerto Rico/8/1934 (PR8); details: A549 cells, H1N1 MOI = 0.01, 24 h post-infection, 5 µM peptide, relative to HPRT

With KKWRKVIKKVVARYK-NH2 [Pc-2] the “cytotoxicity (in words)” value (A549 cells) was “nontoxic”.

For “VCVKKVRKLYKKIYKCR-NH2 (disulfide) [Pc-5, cyclic peptide engineered from Pc-4 by inserting cysteine residues]”, the “cytotoxicity (in words)” value (A549 cells) was “nontoxic”, the “production of viral particles (plaque formation assay)” value (H1N1 virus [1]) was “significantly reduced the production of viral particles” and the “inhibition of H1N1 virus infection (qRT-PCR)” value (H1N1 virus [2]) was “most robust antiviral response”.

RIKRFWPVVIRTVVAGYNLYRAIKKK-NH2 [Pc-1] was tested, and the “concentration above which cytotoxicity is shown” value (A549 cells) was “above 10 µM”.

In the case of VVKKVRKLYKKIYKR-NH2 [Pc-4], the “cytotoxicity (in words)” value (A549 cells) is reported as “nontoxic”.
